Here are results for 94 sequences from publication PMC6212790.

Some of the results follow. At the low end of the ranking, values are background and their order means little.

The test deals with T1, GST-Rok (full length) (UniProt O34857).
T1 sequence: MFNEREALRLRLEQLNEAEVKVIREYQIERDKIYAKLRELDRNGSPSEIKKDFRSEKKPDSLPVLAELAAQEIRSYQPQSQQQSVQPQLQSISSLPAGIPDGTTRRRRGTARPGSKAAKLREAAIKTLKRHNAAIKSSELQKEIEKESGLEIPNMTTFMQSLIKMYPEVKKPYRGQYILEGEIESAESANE
Nature of the test: protein binding microarray.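 Further: rank score from −0.5 (least bound) to 0.5 (best bound).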 The note with it: Rok is a gene silencer of Bacillus subtilis; high values mean tight binding; most listed sequences are background and not binding sites; double strand, one strand shown.
On to ACCTAATG, for which the binding signal was -0.00946 E-score.

In the case of ACCTGTGA, the binding signal was -0.144 E-score.

Take GGAATACA: the binding signal was -0.00371 E-score.

GATATCGA yielded a binding signal of 0.265 E-score. The sequence CAGGTATC displayed a binding signal of -0.173 E-score. Then ATCTCCCC, with -0.211 E-score. Then AATTCAAG, with 0.0633 E-score; and CACTGGAC, with -0.168 E-score.

AATACTCG gave a binding signal of 0.085 E-score.

In the case of AATTTCAG, the binding signal stood at 0.105 E-score. Sequence AATAAGCC returned a binding signal of -0.0305 E-score. In turn, ACTACAAT had a binding signal of 0.344 E-score.

In the case of AAGATATC, the binding signal was determined as 0.208 E-score. Then ATCGTCGG, with -0.0275 E-score. The figure for AGACAGCC is -0.117 E-score; for AAGGGTTG it is -0.192 E-score. Sequence CCGATGCG came in with a binding signal of -0.217 E-score. For CTTAACTA, the binding signal worked out at 0.313 E-score. Regarding CATATTCA, the binding signal was -0.0382 E-score. Sequence CACAAGGG came in with a binding signal of -0.425 E-score.

GGGCATCA registered a binding signal of -0.161 E-score. Then CCCAAAAC, with -0.147 E-score; and TCACAACA, with -0.157 E-score; and TCGTGTCA, with -0.278 E-score. The figure for TATATAGA is 0.404 E-score; for CCTTCTCA it is -0.273 E-score.

With CCATACCC, the binding signal was -0.291 E-score. Regarding AAGACCTC, the binding signal is -0.306 E-score. The figure for CGCTAACA is 0.116 E-score; for ATGGTAAG it is 0.205 E-score; for AGTAGCAT it is 0.291 E-score. In turn, AACGATGT gave a binding signal of 0.0657 E-score.

CCAAATAG had a binding signal of -0.0889 E-score. As for AGATTCTA, the binding signal came out at 0.282 E-score. Consider CGAGTCCG, for which the binding signal is -0.0283 E-score. The figure for AATTAACA is 0.0704 E-score; for GCCTCCAA it is -0.236 E-score.

The sequence CACATCGA gave a binding signal of 0.0672 E-score.

In the case of CCCCTCCA, the binding signal was -0.389 E-score. On to ACAACGGC, for which the binding signal was -0.0679 E-score.

GTGTGCGA registered a binding signal of -0.187 E-score. The sequence CGTACCGC showed a binding signal of -0.291 E-score. Then GATCCTCC, with -0.262 E-score; and CTTAACAA, with 0.111 E-score. Take AAACTAGG: the binding signal amounted to 0.252 E-score. Turning to AGTTCCTC, the binding signal is -0.0871 E-score. Turning to CACACTTA, the binding signal worked out at 0.11 E-score. In turn, GTCCCGGA returned a binding signal of -0.141 E-score. Sequence GCGCTACC displayed a binding signal of 0.0207 E-score. AAGAGGGG displayed a binding signal of -0.472 E-score.

Sequence GTAAGCAC gave a binding signal of -0.0551 E-score. The figure for CTGGCGTC is -0.267 E-score; for CTGGTTCC it is -0.187 E-score; for AACGTTTC it is -0.0207 E-score. The figure for ATGTCCCA is -0.24 E-score; for GAATTTGC it is 0.0837 E-score; for AAATCGGG it is -0.117 E-score. Then GCGGGGAA, with -0.25 E-score; and AGGTCACG, with -0.0554 E-score; and AATTACCG, with 0.32 E-score. Sequence CATATGTC displayed a binding signal of -0.0495 E-score.

CTCTGTGC had a binding signal of -0.0787 E-score. Sequence AAGGGACC displayed a binding signal of -0.35 E-score. Then AGGACAAC, with -0.00864 E-score; and ACGACATG, with 0.136 E-score. Then AGCCACTC, with -0.241 E-score. Then CCCAGGTC, with -0.406 E-score. In the case of CCTACACG, the binding signal turned out to be 0.094 E-score. The figure for CGTGCCAA is -0.162 E-score. For CCTGAGGA, the binding signal is -0.243 E-score. Then ACGCGGCA, with -0.129 E-score.

In turn, AATACGGA registered a binding signal of 0.0922 E-score. TAAGATTA returned a binding signal of 0.22 E-score. Then GCTTCTTA, with 0.0708 E-score.

Sequence ATACATTC gave a binding signal of 0.259 E-score.

On to CAAGTTGC, for which the binding signal was -0.00109 E-score. The figure for ACAAGGCG is -0.168 E-score; for AACGGTTG it is 0.0856 E-score; for GTCTTCCA it is -0.135 E-score. Sequence GTGATCAC yielded a binding signal of -0.16 E-score. Sequence GATCAGCC returned a binding signal of -0.259 E-score. The figure for ACCGTGTC is 0.104 E-score; for AAGTTTAG it is 0.22 E-score.

Consider GACACGAC, for which the binding signal is -0.0441 E-score.

For the sequence GATTCACA, the binding signal is 0.0605 E-score. The figure for CAGACTTA is -0.0703 E-score. The figure for AACGGTCA is -0.228 E-score; for GCGTATAA it is 0.249 E-score. The figure for AAACGAAA is 0.064 E-score; for CGTTGAAA it is 0.00463 E-score. As to AGTACAGG, the binding signal was determined as 0.06 E-score. The figure for AGTTATGG is 0.209 E-score; for CTTGTACC it is 0.0552 E-score. The sequence AGAGGCCA returned a binding signal of -0.17 E-score.
